What was measured:
[1] = tested on: bone marrow cells of Crl:CD(SD) rats; assay: Mammalian erythrocyte micronucleus test
[2] = tested on: liver of Crl:CD(SD) rats; assay: In vivo single cell gel electrophoresis (comet) assay in liver

CN[C@]1(c2ccccc2Cl)CCCCC1=O [esketamine, (2S)-2-(2-Chlorophenyl)-2-(methylamino) cyclohexanone]
proportion of polychromatic erythrocytes vs vehicle control ([1]; female rats, any dose level): no statistically significant decreases | frequency of micronucleated polychromatic erythrocytes vs vehicle control ([1]; female rats, any dose level (12.5, 25, 50 mg/kg/day)): No statistically significant increases | micronucleated polychromatic erythrocytes or bone marrow cell toxicity, conclusion ([1]; male or female rats, oral gavage): has not shown any evidence | proportion of polychromatic erythrocytes vs vehicle control ([1]; male rats, 37.5 and 75 mg/kg/day, p<0.05, within historical range, not considered biologically relevant): Statistically significant decreases | frequency of micronucleated polychromatic erythrocytes vs vehicle control ([1]; male rats, any dose level (18.75, 37.5, 75 mg/kg/day)): No statistically significant increases | no observed genotoxic effect level for comet tail intensity in liver ([2]; female rats): 12.5 mg/kg/day | no observed genotoxic effect level for comet tail intensity in liver ([2]; male rats): 37.50 mg/kg/day

From patent US20210196654A1, “METHOD OF TREATING CONDITIONS” (Clexio Biosciences Ltd., priority 2019, published 2021)
